Test results reported in PubChem BioAssay AID1461 (National Center for Advancing Translational Sciences (NCATS), 2008).
In all, about 220,000 compounds went through this assay and about 2,300 (1%) were called active. This list was built around the results that the source calls inconclusive (neither active nor inactive); the mix of calls is not that of the screen. The call rests on the fitted dose curve; in most records, active means well fitted inhibition curve with a large enough effect; inconclusive means small, poorly fitted or top-dose-only effect, or effect the other way; inactive means no such curve, though single readings can be large or run the other way. No potency is given beside an inconclusive call; the fits are too rough.

These compounds were tested against Neuropeptide S receptor (Homo sapiens) (UniProt Q6W5P4) (assay: qHTS Assay for Antagonists of the Neuropeptide S Receptor: cAMP Signal Transduction). Details: CHO-NPSR cells, cAMP TR-FRET, antagonist mode; series mostly up to 38.3 µM.
UniProt Q6W5P4, sequence (Q6W5P4 whole entry, looked up): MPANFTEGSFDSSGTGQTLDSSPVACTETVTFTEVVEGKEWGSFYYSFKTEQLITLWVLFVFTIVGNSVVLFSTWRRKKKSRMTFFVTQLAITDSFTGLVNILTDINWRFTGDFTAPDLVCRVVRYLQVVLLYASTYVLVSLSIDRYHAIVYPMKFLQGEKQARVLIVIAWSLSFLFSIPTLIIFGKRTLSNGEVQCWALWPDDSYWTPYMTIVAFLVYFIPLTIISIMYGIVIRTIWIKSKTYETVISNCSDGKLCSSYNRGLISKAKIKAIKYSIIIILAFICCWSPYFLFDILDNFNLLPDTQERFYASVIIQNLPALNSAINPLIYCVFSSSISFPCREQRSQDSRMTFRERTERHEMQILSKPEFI
Further: nearly all actives have a fitted effect of over 50% in size.
Potency means the concentration at half of the fitted maximal effect; tags describe the fitted curve by direction and shape.

| Compound | Potency |
| --- | --- |
| O=C(N/N=C/c1cc(Br)cs1)c1c[nH]c2ccccc12 | inconclusive [activator, single point] |
| Cc1ccc(NC(=O)c2[nH]cnc2C(=O)NN)cc1 | inactive |
| CCn1c(-c2cccc(S(=O)(=O)N3CCCC3)c2)n[nH]c1=S | inconclusive [inhibitor, single point] |
| CCC(c1nnnn1CCc1ccccc1)N(Cc1ccco1)Cc1cc2cccc(C)c2[nH]c1=O (centres undefined) | inconclusive [inhibitor, partial curve] |
| Cn1c(SC/C=C/c2ccccc2)nnc1-c1ccco1 | inactive |
| Oc1ccccc1Nc1nc(NCC2CCCO2)c2ccccc2n1 (centres undefined) | inconclusive [inhibitor, single point] |
| CCOC(=O)c1nc(Nc2ccc(N3CCC(C)CC3)cc2)c2ccccc2n1 | inconclusive [activator, partial curve] |
| Cc1cc(NC(=O)CCC(=O)N(c2ccc(F)cc2)C2(C(=O)NC3CCCCC3)CCCC2)no1 | inconclusive [inhibitor, partial curve, poor fit] |
| COc1cc2c(cc1OC)C1(Nc3c-2c(-c2ccccc2)nn3-c2ccccc2)C(=O)Nc2ccccc21 (centres undefined) | inconclusive [inhibitor, single point] |
| Cc1ccn2cc(CCNC(=O)c3ccc(Br)o3)nc2c1 | inactive |
| c1ccc(Nc2nnc(SCc3cccc4ccccc34)s2)cc1 | inconclusive [inhibitor, partial curve] |
| COC(=O)CSC1=C(C#N)C(=O)NC(c2ccccc2)S1 (centres undefined) | inconclusive [inhibitor, single point] |
| CSc1c(SCc2ccccc2)cnn(Cc2ccccc2)c1=O | active: 10 µM |
| CC(=O)c1cc(NC(=O)c2ccc(C)cc2)c(=O)oc1/C=C/N(C)C | inconclusive [inhibitor, single point] |
| CCN1/C(=C/c2ccc3cc(C)ccc3[n+]2CC)Sc2ccccc21 | active: 10 µM |
| c1ccc(Cn2c(CNc3nc4ccccc4n3CCN3CCOCC3)nc3ccccc32)cc1 | inconclusive [inhibitor, partial curve] |
| Cn1c(N)c(C(=O)Nc2ccc(-c3ccccc3)cc2)sc1=S | inconclusive [activator, single point] |
| COc1ccc(Cl)cc1NC(=O)CCN1CCN(c2ccccc2C)CC1 | inconclusive [inhibitor, single point] |
| O=C(O)/C=C\C(=O)Nc1ccc(N2CCN(c3ccc(F)cc3)CC2)cc1 | inactive |
